Source: PubChem BioAssay AID485313 (National Center for Advancing Translational Sciences (NCATS), 2010)
In all, about 320,000 compounds went through this assay and about 7,600 (2.4%) were called active. The inconclusive results got no clear call from the source; some entries with a clear call stand among them for comparison. Calls follow the shape of the dose curve; as a rule, active = well fitted activation curve with a large enough effect; inconclusive = small, poorly fitted or top-dose-only effect; inactive = no such curve, though single readings can be large or run the other way. No potency is given beside an inconclusive call; the fits are too rough.
Potency is read from the fitted curve at half-maximal effect; tags tell the direction and shape of the fitted curve.

Test: qHTS Assay for NPC1 Promoter Activators; also: nearly all actives have a fitted effect of over 60% in size;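 as to activation: reporter is driven by a mutant NPC1 promoter; % of control where 0% means no effect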
Conditions: Huh7 NPC1 promoter luciferase reporter, 24 h; series mostly up to 9.22 µM; activation: at the top concentration
Procedure, shortened: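 Cells: Huh7 expressing luciferase under the NPC1 promoter, 1500/well. Seeded 2 h, compound added, incubated 24 h at 37 °C. Luciferase reagent, 10 min ambient, then luminescence.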
In the case of `O=C(N/N=C/c1ccccc1)c1[nH]ncc1Br`, the Potency is reported as inconclusive [activator, partial curve]. With `CCn1c(-c2ccc(N(C)C)cc2)nc2ccccc21` the Potency was inconclusive [activator, partial curve]. In the case of `CCOC(=O)c1cc2c(=O)c3cc(C)ccc3oc2nc1C`, the Potency is reported as active: 2.82 µM. For `O=C(NC1CCCCCCC1)c1c(O)c2ccccc2[nH]c1=O`, the Potency was inconclusive [activator, partial curve]. For `O=C(c1cc(COc2ccc(F)c(F)c2)on1)N1CCSCC1`, the Potency was inconclusive [activator, partial curve]. In the case of `CCOc1ccc(NC(=O)c2ccccn2)cc1`, the Potency is reported as inconclusive [activator, full curve]. With `COC(=O)c1ccc(NC(=S)NC2CC3CCC2C3)cc1` (centres undefined) the “activation” value was inactive: 22.6%. With `Cc1occc1C(=O)Nc1nnc(C2CCCCC2)s1` the Potency was inconclusive [activator, partial curve]. For `COc1ccc(C(=O)Nc2cccc(-c3ccc(N4CCOCC4)nn3)c2)cc1OC`, the Potency was inconclusive [activator, partial curve]. With `CCCCCCc1ccc(-c2ncc(N)cn2)cc1` the “activation” value was inactive: 16.8%. In the case of `CC(C)(C)c1ccc(/C=C/C(=O)N2CCOCC2)cc1`, the Potency is reported as inconclusive [activator, partial curve]. With `Oc1c(/C=N/Nc2cccc3cccnc23)ccc2ccccc12` the Potency was inconclusive [activator, single point]. In the case of `COc1cccc(-c2noc(-c3ccc4c(c3)OCO4)n2)c1`, the Potency is reported as active: 2.51 µM. In the case of `CC(=O)c1ccc(NC(=O)c2ccc(N3CCCC3=O)cc2)cc1`, the “activation” value is reported as inactive: 1.11%. For `CC[n+]1ccccc1/C=C/c1ccc(N(C)C)cc1`, the “activation” value was inactive: -40.2%. With `COC(=O)c1ccc(CSc2nc3ccccc3s2)o1` the Potency was inconclusive [activator, partial curve]. In the case of `CC(Cc1ccccc1)NC(=O)CN1C(=O)c2ccccc2S1(=O)=O` (centres undefined), the Potency is reported as inconclusive [activator, single point]. With `CN1CCN(c2ccc(NC(=O)c3ccc4c(c3)OCCO4)cc2)CC1` the Potency was active: 2.24 µM. In the case of `COc1ccc(C2=NN(S(C)(=O)=O)C(c3cccs3)C2)cc1OC` (centres undefined), the Potency is reported as inconclusive [activator, partial curve]. For `C(=N\Nc1nncc2ccccc12)/c1ccccn1`, the Potency was inconclusive [activator, single point]. In the case of `COc1cc2ccccc2cc1C(=O)NCC(c1cccs1)N(C)C` (centres undefined), the Potency is reported as active: 2.82 µM. In the case of `CC(Cc1cccs1)NC(=O)c1cccc(Cl)c1` (centres undefined), the Potency is reported as inconclusive [activator, single point]. For `NC(=O)CSc1nnc2n(N)c(=O)c3ccccc3n12`, the “activation” value was inactive: -1.69%. With `CN(CC(=O)Nc1ccc2c(c1)OCO2)S(=O)(=O)c1cccs1` the Potency was inconclusive [activator, single point]. For `Cn1c(/C=C/c2ccccc2)nc2ccccc2c1=O`, the Potency was inconclusive [activator, partial curve]. For `Cc1ccc(O)c(-c2cc(-c3ccc(F)cc3)no2)c1`, the “activation” value was inactive: -32.7%. With `COc1cccc(C2=N/C(=C\N(C)C)C(=O)O2)c1` the Potency was inconclusive [activator, partial curve]. In the case of `CC(=O)N(C)c1ccc(N=NC2C(=O)N(C(N)=S)N=C2C)cc1` (centres undefined), the Potency is reported as active: 0.501 µM. For `Cc1ccc(S(=O)(=O)N2CCOCC2)cc1C(=O)OC1CCOC1=O` (centres undefined), the “activation” value was inactive: 0.0968%. For `CCOC(=O)c1cc2n(c1C)-c1ccccc1C2=O`, the Potency was inconclusive [activator, single point]. In the case of `CCOC(=O)C1CCN(c2nnc(N3CCCC3=O)s2)CC1`, the Potency is reported as inconclusive [activator, single point]. With `Cc1nn(-c2ccc(Br)cc2)c(=O)c2ccccc12` the Potency was inconclusive [activator, single point]. With `C/C(=N\Nc1nc2ccccc2[nH]1)c1ccc(N2CCOCC2)cc1` the Potency was active: 3.98 µM. In the case of `Cc1cccc(-n2ccc(=O)c(C(=O)Nc3ccc(S(=O)(=O)N4CCOCC4)cc3)n2)c1`, the “activation” value is reported as inactive: 2.28%. With `O=C(Nc1nnc(S(=O)(=O)N2CCCCCC2)s1)c1ccccc1` the Potency was inconclusive [activator, partial curve]. In the case of `CCN(CC)C(=O)COc1ccc(-c2ccccc2)cc1`, the Potency is reported as inconclusive [activator, partial curve]. For `C/C(=N\NC(=O)c1ccc2c(c1)OCO2)c1ccc2c(c1)OCO2`, the Potency was inconclusive [activator, partial curve]. For `O=C(C#Cc1ccccc1)Nc1ccccc1F`, the Potency was inconclusive [activator, partial curve]. With `COc1cc(OC)c(NC(=O)c2csc(C)c2)cc1Cl` the “activation” value was inactive: 8.48%. In the case of `COc1ccc(C(=O)Nc2ccccc2C(=O)Nc2ccc(C(=O)O)cc2)cc1`, the Potency is reported as inconclusive [activator, partial curve]. For `CN(C(=O)c1cc(-c2ccc3c(c2)OCO3)on1)c1ccccc1`, the Potency was active: 2.51 µM. For `CCCCCc1ccc(-c2ccc(/C=C/C(=O)O)cc2)nc1`, the Potency was inconclusive [activator, partial curve]. For `O=C(N/N=C\c1cc2c(cc1Cl)OCO2)c1cccs1`, the Potency was inconclusive [activator, single point]. With `O=C(N/N=C/c1ccc([N+](=O)[O-])o1)c1cc2ccccc2o1` the “activation” value was inactive: -9.76%. With `O=C(Nc1ccccc1)C(=O)Nc1ccccn1` the Potency was inconclusive [activator, partial curve]. In the case of `C/C(=N\NC(=O)c1n[nH]c2c1CCC2)c1cccs1`, the Potency is reported as inconclusive [activator, full curve]. For `CCCc1ccc(-c2cc(N)n[nH]2)cc1`, the Potency was inconclusive [activator, partial curve]. With `O=c1cc(-c2ccc(O)c(O)c2)oc2ccc3ccccc3c12` the Potency was inconclusive [activator, single point]. With `O=C(Nc1ccc(CN2CCOCC2)cc1)c1ccco1` the Potency was active: 2 µM. With `COc1cc(CNS(=O)(=O)CCl)cc(OC)c1OC` the “activation” value was inactive: 0.897%. For `CCCC(=O)Nc1nc2ccc(C(=O)OCC)cc2s1`, the Potency was active: 0.631 µM. With `CCc1c(C)sc(NC(=O)c2cccs2)c1C(N)=O` the Potency was inconclusive [activator, partial curve]. For `COc1cccc2cc(C(=O)c3ccccc3)oc12`, the Potency was inconclusive [activator, partial curve]. For `C=CCn1c(=O)[nH]c2cc(C(=O)N3CC=C(c4ccccc4)CC3)ccc2c1=O`, the “activation” value was inactive: -5.86%. For `CCCCN(C)C(=O)Cn1c(=O)oc2cc(S(=O)(=O)N3CC(C)CC(C)C3)ccc21` (centres undefined), the “activation” value was inactive: 0.888%. In the case of `Cc1ccc(NC(=O)c2cc3ccccc3o2)cc1`, the Potency is reported as active: 3.16 µM. For `COC(=O)c1c(NC(C)=O)sc(C(=O)Nc2ccccc2F)c1C`, the Potency was inconclusive [activator, partial curve]. In the case of `Cc1ccc2nc(C)cc(N/N=C/c3cccnc3)c2c1`, the “activation” value is reported as inactive: 0.388%. For `CCCC(=O)Nc1ccc(S(=O)(=O)Nc2cc(C)nc(C)n2)cc1`, the “activation” value was inactive: -2.37%. With `Cc1ccc(C(C)C)cc1OCC(=O)Nc1ccc(N2CCCCC2)cc1` the “activation” value was inactive: -3.61%. In the case of `CCOc1ccc(NC(=O)c2ccccc2CO)cc1`, the Potency is reported as inconclusive [activator, partial curve]. For `Cc1ccc(-c2cc(C(=O)Nc3cccnc3)[nH]n2)c(O)c1C`, the Potency was inconclusive [activator, single point]. In the case of `COc1ccc(C(=O)N/N=C\c2ccoc2)cc1`, the Potency is reported as inconclusive [activator, partial curve]. For `CCOc1ccc2cc(/C=C/C(=O)c3ccco3)c(Cl)nc2c1`, the Potency was inconclusive [activator, partial curve]. For `Cc1cccc(-c2nc(C#N)c(NCc3ccco3)o2)c1`, the Potency was inconclusive [activator, single point]. With `O=C(COc1ccccc1)Nc1nnc(-c2ccccc2)o1` the “activation” value was inactive: 0.562%. In the case of `O=C(O)c1ccc(N/N=C2/CCCc3ccccc32)cc1`, the Potency is reported as active: 3.16 µM. For `O=[N+]([O-])c1cccc(-c2nc(-c3ccncc3)no2)c1`, the Potency was inconclusive [activator, single point]. In the case of `Cc1cc(/C=N\NC(=O)c2cccs2)c(C)n1-c1ccc2ncccc2c1`, the Potency is reported as active: 2.82 µM. In the case of `COc1ccc(NC(=O)c2cccc([N+](=O)[O-])c2)cc1`, the Potency is reported as inconclusive [activator, single point]. For `COc1ccc(CN2CCN(C(=O)CCC(=O)Nc3nnc(CC(C)C)s3)CC2)cc1F`, the “activation” value was inactive: -7.85%. For `CCOC(=O)c1ccc(Nc2ccc([N+](=O)[O-])cn2)cc1`, the Potency was inconclusive [activator, single point]. In the case of `O=C(c1cccc(Cl)c1)N1CCCc2ccccc21`, the “activation” value is reported as inactive: -2.76%. For `Cn1cc(CN2CCN(Cc3ccccc3)CC2)c(-c2cccc(Cl)c2)n1`, the “activation” value was inactive: -4.89%. With `CCOC(=O)c1c(C)sc2c1N(C(=O)CN1CCOCC1)c1cc(Cl)ccc1S2` the “activation” value was inactive: 0.483%. In the case of `CN(C)C(=O)COC(=O)c1ccccc1Nc1ccc(SC(F)F)cc1`, the Potency is reported as inconclusive [activator, partial curve]. In the case of `O=c1cc(-c2ccccc2)nc2nc(-c3ccccc3)[nH]n12`, the Potency is reported as inconclusive [activator, single point]. For `Cc1cc(/C=C2\C(=N)N3N=CSC3=NC2=O)c(C)n1Cc1ccccc1`, the Potency was inconclusive [activator, partial curve]. With `C=CCn1c(C)nnc1SCC(=O)Nc1nccs1` the Potency was inconclusive [activator, full curve, poor fit].
